Experimental data: PubChem BioAssay AID686970 (National Center for Advancing Translational Sciences (NCATS), 2013)
The campaign covered roughly 360,000 compounds. About 6,000 (1.7%) were called active. The shares of active, inactive and inconclusive entries below differ from those in the screen. Calls follow the shape of the dose curve; as a rule, active = well fitted cell-killing curve with a large enough effect; inconclusive = small, poorly fitted or top-dose-only effect, or effect the other way; inactive = flat fitted curve, though single readings scatter. Potencies of inconclusive entries are left out as doubtful fits.
Potency is read from the fitted curve at half-maximal effect; tags tell the direction and shape of the fitted curve.

Assay: qHTS for induction of synthetic lethality in tumor cells producing 2HG: qHTS for the HT-1080-NT fibrosarcoma cell line;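 also: NT is the 2HG producing partner of a matched IDH1 knockdown line; nearly all actives have a fitted effect of over 55% in size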;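 as to activity, negative = less viability: 0% = DMSO-treated cells and -100% = media-only wells without cells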
Conditions: HT-1080-NT fibrosarcoma viability, CellTiter-Glo ATP luminescence, 48 h; activity, negative = less viability: at 46.1 µM (top of the series) unless noted
How it was run: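 HT-1080-NT; 750 cells/well; 5% FBS RPMI; 48 h compound, 37 degrees C; CellTiter-Glo luminescence; curve fitting and curve-class assignment.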
With `Cc1cccc(Nc2ccccc2C(=O)OCC(=O)N(C)C2CCS(=O)(=O)C2)c1C` (centres undefined) the Potency was inconclusive [cytotoxic, single point]. For `Cc1cc(C(=O)CSc2nc(N)cc(N)n2)c(C)n1CC1CCCO1` (centres undefined), the Potency was inconclusive [cytotoxic, partial curve, poor fit]. With `COc1cccc(CC2(CO)CCCN(Cc3cn[nH]c3-c3cc(C)ccc3C)C2)c1` (centres undefined) the Potency was inconclusive [cytotoxic, single point]. For `N#C/C(=C\c1ccc(Sc2nc3ccccc3[nH]2)o1)c1ccccc1`, the Potency was inconclusive [cytotoxic, partial curve]. With `Oc1ccc(CN2CCc3ccccc3C2)c2cccnc12` the Potency was active: 11.6 µM. With `CN1CCN(c2ccccc2NC(=O)c2cc3ccccc3o2)CC1` the Potency was inconclusive [cytotoxic, single point]. In the case of `O=C(Nc1ccc(Cl)c(S(=O)(=O)N2CCOCC2)c1)c1cc(-c2ccccn2)nc2ccccc12`, the Potency is reported as inconclusive [cytotoxic, partial curve]. In the case of `O=C(Cc1cccs1)Nc1cccc(C(=O)Nc2ccco2)c1`, the Potency is reported as inconclusive [cytotoxic, single point]. For `CCOC(=O)C1=C(C)Nc2ccc(C)cc2S1`, the “activity, negative = less viability” value was inactive: -6.96%. For `CC(=O)Nc1c(O)nc(SCC(=O)Nc2c(C)cccc2C)[nH]c1=O`, the “activity, negative = less viability” value was inactive: 9.08%. With `COc1ccc(-c2nnc(NC(=O)c3ccc(S(=O)(=O)N4COCC4(C)C)cc3)o2)cc1` the Potency was inconclusive [cytotoxic, full curve]. In the case of `COc1ccc(-c2csc(C(C)(O)c3ccc(F)c(F)c3)n2)cn1` (centres undefined), the Potency is reported as inconclusive [cytotoxic, single point]. For `Cc1ccc2oc(=O)c3cc(C(=O)NCCCN4CCN(C)CC4)sc3c2c1`, the Potency was inconclusive [cytotoxic, single point]. With `COc1ccccc1C1C2=C(N=c3s/c(=C/c4cccc(OCC(=O)O)c4)c(=O)n31)c1ccccc1CC2` (centres undefined) the Potency was inconclusive [cytotoxic, single point]. With `COc1ccc2oc(C(=O)OCC(=O)NC3CCS(=O)(=O)C3)c(C)c2c1` (centres undefined) the “activity, negative = less viability” value was inactive: -0.868%. In the case of `COc1ccc(C(=O)Nc2ccccc2-c2ccccc2)cc1Cl`, the “activity, negative = less viability” value is reported as inactive: -4.37%. With `COc1ccccc1C(NC(=O)C1CCN(CCc2ccc(Br)cc2)CC1)c1ccccn1` (centres undefined) the Potency was inconclusive [cytotoxic, single point]. With `Cc1ccc(C(=O)N2CCc3cc4c(cc3C2C)OCCCO4)cc1` (centres undefined) the Potency was inconclusive [cytotoxic, single point]. In the case of `CCOC(=O)C1=C(C)Nc2ccccc2N=C1N`, the Potency is reported as inconclusive [rising, full curve]. In the case of `COc1ccccc1NC(=O)Nc1nc(C(N)CCc2ccccc2)cs1` (centres undefined), the Potency is reported as active: 23.1 µM. With `Cn1cc(CCNC(=O)CC2C(=O)NCCN2CC(c2ccccc2)c2ccccc2)cn1` (centres undefined) the Potency was inconclusive [rising, single point]. With `COc1ccc(S(=O)(=O)Nc2cc(S(=O)(=O)c3ccccc3)c(O)cc2C)cc1` the “activity, negative = less viability” value was inactive: 1.65%. For `Cc1oc(-c2ccc(Cl)cc2)nc1CS(=O)CC(=O)NC1CC1` (centres undefined), the “activity, negative = less viability” value was inactive: -1.57%. For `COc1cccc(CN2CCC2(C)C(=O)Nc2cccc3cccnc23)c1OC` (centres undefined), the Potency was inconclusive [cytotoxic, partial curve]. With `COc1cc(/C=N/NC(=O)CC#N)ccc1Oc1nc(Cl)ncc1F` the “activity, negative = less viability” value was inactive: 0.482%. For `Cc1nn(Cc2ccc(F)cc2)c(Cl)c1/C=N/NC(=O)c1ccccc1`, the Potency was inconclusive [cytotoxic, full curve, poor fit]. With `O=C1c2c(-c3ccc(Br)cc3)noc2CCN1Cc1cn(Cc2ccccc2)nn1` the Potency was inconclusive [cytotoxic, single point]. For `COc1ccc(C(=O)c2ccc(OC)cc2OC)cc1`, the Potency was active: 23.1 µM. For `CCOC(=O)c1cnc2ccccc2c1Nc1ccc2c(c1)OCCO2`, the Potency was inconclusive [cytotoxic, single point]. With `CCC(C)NC(=O)c1cn(CC)c2ccc(S(=O)(=O)N3CCCCC3)cc2c1=O` (centres undefined) the Potency was inconclusive [cytotoxic, partial curve]. With `O=C(Nc1cccc(-c2cccc(F)c2)c1)C1CCN(CC2CCOC2)CC1` (centres undefined) the Potency was inconclusive [cytotoxic, single point]. For `Cc1cc(N2CCN(C(C(=O)NC3CCCC3)C(C)(C)C)CC2)c2ccccc2n1` (centres undefined), the Potency was inconclusive [cytotoxic, single point]. For `CC(C)(C)OC(=O)NCCCC[C@H](NC(=O)c1nc[nH]c1C(=O)NC1CCN(C(=O)OC(C)(C)C)CC1)C(=O)OC(C)(C)C`, the Potency was inconclusive [cytotoxic, single point]. In the case of `CCCN(CCC)Cc1cc(=O)oc2cc(C)cc(C)c12`, the “activity, negative = less viability” value is reported as inactive: 20.1%. With `COc1ccc(NC(=O)C2CCN(c3cc(-c4ccccc4)nc4ncnn34)CC2)cc1OC` the Potency was inconclusive [cytotoxic, partial curve]. For `CC[C@]12c3[nH]c4ccccc4c3CCN1C(=O)C(CC(=O)NCCc1ccccn1)C[C@@H]2C(=O)N1CCN(C(=O)c2ccco2)CC1` (some centres undefined), the activity, negative = less viability was inconclusive: 1.99% [cytotoxic]. For `O=S(=O)(NCCC1=CCCCC1)c1ccc(OC(F)(F)F)cc1`, the “activity, negative = less viability” value was inactive: -4.56%. For `Cc1ccc(NC(=O)N2CCCC(c3nc(-c4ccc(F)cc4)no3)C2)cc1` (centres undefined), the “activity, negative = less viability” value was inactive: 1.19%. In the case of `CC(C)(C)c1ccc(S(=O)(=O)Nc2ccc(C(O)(C(F)(F)F)C(F)(F)F)cc2)cc1`, the Potency is reported as active: 18.4 µM. With `CC1=CC(C)(C)N2C(=O)C(=Nc3ccc(O)cc3)c3cccc1c32` the Potency was active: 16.4 µM. In the case of `Cc1nc(Nc2ccccc2Br)c2nnn(Cc3ccccc3)c2n1`, the “activity, negative = less viability” value is reported as inactive: -3.22%. For `O=C(Nc1cccnc1)c1cc(-c2ccc(Br)cc2)nc2ccccc12`, the Potency was inconclusive [cytotoxic, single point]. In the case of `CCCCCCN1C[C@H](n2cc(C3CC3)nn2)[C@@H](O)C[C@@H]1c1ccc(C)cc1`, the Potency is reported as inconclusive [cytotoxic, single point]. In the case of `COC(=O)[C@]12CCCCC=C1N(Cc1cccc3ccccc13)C(=O)[C@H](CC(=O)NCCc1ccccc1OC)C2`, the Potency is reported as inconclusive [cytotoxic, single point]. For `Cc1cccc(C)c1NC(=O)CN`, the Potency was inconclusive [rising, partial curve]. For `CCOC(=O)C1=C(N)Oc2cc(O)ccc2C1c1ccccc1` (centres undefined), the Potency was inconclusive [cytotoxic, single point]. In the case of `COc1ccccc1C1CC(c2ccc(NS(C)(=O)=O)cc2)=NN1S(=O)(=O)c1ccccc1` (centres undefined), the “activity, negative = less viability” value is reported as inactive: -14.6%. In the case of `Cc1ccc(C)c(N=Nc2nc3ccccc3n2C)c1`, the Potency is reported as active: 3.98 µM. In the case of `O=C(CC(SCCO)c1ccc2c(c1)OCO2)c1cccs1` (centres undefined), the Potency is reported as inconclusive [cytotoxic, single point]. With `COc1ccc(C(=O)c2ccc([N+](=O)[O-])cc2)cc1S(=O)(=O)N1CCC(C(=O)O)CC1` the “activity, negative = less viability” value was inactive: -10.3%. With `CCOC(=O)Cc1ccc(Nc2nc(NCc3cccs3)nc3ccsc23)cc1` the Potency was inconclusive [cytotoxic, partial curve]. In the case of `COc1ccc(S(=O)(=O)NC(CC(=O)NCCc2ccccc2)c2ccco2)cc1` (centres undefined), the Potency is reported as inconclusive [cytotoxic, single point]. For `CC1(C)CC(=O)C=C(NCCc2ccc(S(N)(=O)=O)cc2)C1`, the “activity, negative = less viability” value was inactive: 7.22%. With `O=C(c1ccc(-c2ccc(Cl)cc2)o1)N1CCN(c2ccc([N+](=O)[O-])cc2Cl)CC1` the Potency was inconclusive [cytotoxic, partial curve, poor fit]. With `N#Cc1c(NCCCO)nc(NCc2ccccc2)c2c1CCN(Cc1ccccc1)C2` the Potency was inconclusive [cytotoxic, single point]. In the case of `CCCCN(Cc1ccco1)S(=O)(=O)c1c[nH]c(C(=O)OC)c1`, the Potency is reported as inconclusive [cytotoxic, partial curve]. For `CC1CCN(c2nc(/C=C/c3ccccc3)nc3ccccc23)CC1`, the Potency was inconclusive [cytotoxic, single point]. For `CC(C)(C)OC(=O)C[C@@H]1C/C=C\C[C@@H](CC(=O)N[C@@H](CO)Cc2ccccc2)C(=O)NC[C@@H](c2ccccc2)OC1=O`, the “activity, negative = less viability” value was inactive: -2.12%. In the case of `COc1cc(C#Cc2c(-c3cncn3C)n(C)c3ccc(-c4cc(OC)c(OC)c(OC)c4)cc23)cc(OC)c1`, the Potency is reported as inconclusive [cytotoxic, single point]. In the case of `COc1cc2c(C#Cc3cccnc3)c(-c3ccsc3)oc(=O)c2cc1OC`, the “activity, negative = less viability” value is reported as inactive: -3.85%. In the case of `CCOc1cc(N(CC)CC)ccc1/C=C(/C#N)c1nc2ccccc2[nH]1`, the “activity, negative = less viability” value is reported as inactive: -24.9%. For `N/C(=N\OC(=O)c1cccc2ccccc12)c1ccccn1`, the Potency was inconclusive [cytotoxic, single point]. In the case of `Cn1c(CCN2CCN(c3ccccn3)CC2)nc2cc(NC(=O)COc3ccc(Cl)cc3)ccc21`, the Potency is reported as inconclusive [cytotoxic, single point]. In the case of `Cc1ccc(-c2csc(NC(=O)CN3CCOCC3)n2)cc1`, the Potency is reported as inconclusive [cytotoxic, partial curve]. For `CCOC(=O)CCCC(=O)N1CCOCCOCCOCC1`, the “activity, negative = less viability” value was inactive: -2.23%. In the case of `NCCCN(Cc1ccc(Cl)c(Cl)c1)c1ccccn1`, the Potency is reported as active: 12.6 µM. In the case of `COc1ccc(F)cc1S(=O)(=O)NCc1cc(=O)n(C)c(=O)n1C`, the “activity, negative = less viability” value is reported as inactive: 3.22%. With `Clc1cccc(CNc2ccn3nc(-c4ccc(OCCN5CCOCC5)cc4)cc3n2)c1` the Potency was active: 16.4 µM. In the case of `Clc1ccc(SCc2cn3ccccc3n2)cc1`, the activity, negative = less viability is reported as inconclusive: -8.04%.
